# Laboratory results published in the supplement of paper PMC8728848.
# Some of the results follow.
# B1: Gal 7 (Homo sapiens) (protein)
# chain: MSNVPHKSSLPEGIRPGTVLRIRGLVPPNASRFHVNLLCGEEGGSDAALHFNPRLDTSEVVFNSKEGGSWGREERGPGVPFGRGQPFEVLIIASDDGFKAVVGDAQYHHFRHRLPLARVRLVEVGGDVQLDSVRIF
# What was measured:
# Experiment in all cases: glycan array binding signal (z-score within array); higher = stronger binding
# Details in all cases: glycan notation: IUPAC condensed, linker removed
# [1] = molecular target: Man(a1-2)Man(a1-3)[Man(a1-2)Man(a1-6)]Man(a1-6)[Man(a1-2)Man(a1-2)Man(a1-3)]Man
# Procedure, shortened: (§1)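 Negative Z-scores can be read as non-binding. The Z-score is calculated within each array and then averaged across arrays of one protein sequence at different concentrations or buffers and across linkers. Arrays, 3228 in all, were curated from the Consortium for Functional Glycomics database and kept only where the protein sequence was available.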
# [2] = molecular target: Man(a1-2)Man(a1-3)[Man(a1-2)Man(a1-6)]Man(a1-6)[Man(a1-2)Man(a1-2)Man(a1-3)]Man(b1-4)GlcNAc(b1-4)GlcNAc
# Procedure, shortened: as §1
# [3] = molecular target: Man(a1-2)Man(a1-3)[Man(a1-3)[Man(a1-6)]Man(a1-6)]Man(b1-4)GlcNAc(b1-4)GlcNAc
# Procedure, shortened: as §1
# [4] = molecular target: Man(a1-2)Man(a1-3)[Man(a1-6)]Man(a1-6)[Man(a1-2)Man(a1-3)]Man(b1-4)GlcNAc(b1-4)GlcNAc
# Procedure, shortened: as §1
# [5] = molecular target: Man(a1-2)Man(a1-6)[Man(a1-3)]Man(a1-6)[Man(a1-2)Man(a1-2)Man(a1-3)]Man
# Procedure, shortened: as §1
# [6] = molecular target: Man(a1-2)Man(a1-6)[Man(a1-3)]Man(a1-6)[Man(a1-2)Man(a1-2)Man(a1-3)]Man(b1-4)GlcNAc(b1-4)GlcNAc
# Procedure, shortened: as §1
# Man(a1-3)[Man(a1-6)]Man = molecular target: Man(a1-3)[Man(a1-6)]Man
# Procedure, shortened: as §1
# [7] = molecular target: Man(a1-3)[Man(a1-6)]Man(a1-6)[Man(a1-2)Man(a1-3)]Man(b1-4)GlcNAc(b1-4)GlcNAc
# Procedure, shortened: as §1
# [8] = molecular target: Man(a1-3)[Man(a1-6)]Man(a1-6)[Man(a1-3)]Man
# Procedure, shortened: as §1
# [9] = molecular target: Man(a1-3)[Man(a1-6)]Man(a1-6)[Man(a1-3)]Man(b1-4)GlcNAc(b1-4)GlcNAc
# Procedure, shortened: as §1
# [10] = molecular target: Man(a1-3)[Man(a1-6)]Man(b1-4)GlcNAc(b1-4)GlcNAc
# Procedure, shortened: as §1
# [11] = molecular target: Man(a1-3)[Man(a1-6)]Man(b1-4)GlcNAc(b1-4)[Fuc(a1-6)]GlcNAc
# Procedure, shortened: as §1
# Man(a1-6)Man = molecular target: Man(a1-6)Man
# Procedure, shortened: as §1
# Man(b1-4)GlcNAc = molecular target: Man(b1-4)GlcNAc
# Procedure, shortened: as §1
# MurNAc(b1-4)GlcNAc = molecular target: MurNAc(b1-4)GlcNAc
# Procedure, shortened: as §1
# Neu5Ac(a2-3)Gal = molecular target: Neu5Ac(a2-3)Gal
# Procedure, shortened: as §1
# [12] = molecular target: Neu5Ac(a2-3)Gal(b1-3)GalNAc
# Procedure, shortened: as §1
# [13] = molecular target: Neu5Ac(a2-3)Gal(b1-3)GalNAc(b1-3)Gal(a1-4)Gal(b1-4)Glc
# Procedure, shortened: as §1
# [14] = molecular target: Neu5Ac(a2-3)Gal(b1-3)GalNAc(b1-4)Gal(b1-4)Glc
# Procedure, shortened: as §1
# [15] = molecular target: Neu5Ac(a2-3)Gal(b1-3)GalNAc(b1-4)[Neu5Ac(a2-3)]Gal(b1-4)Glc
# Procedure, shortened: as §1
# [16] = molecular target: Neu5Ac(a2-3)Gal(b1-3)GalNAc(b1-4)[Neu5Ac(a2-8)Neu5Ac(a2-3)]Gal(b1-4)Glc
# Procedure, shortened: as §1
# [17] = molecular target: Neu5Ac(a2-3)Gal(b1-3)GalNAc6S
# Procedure, shortened: as §1
# [18] = molecular target: Neu5Ac(a2-3)Gal(b1-3)GlcNAc
# Procedure, shortened: as §1
# [19] = molecular target: Neu5Ac(a2-3)Gal(b1-3)GlcNAc(b1-2)Man
# Procedure, shortened: as §1
# [20] = molecular target: Neu5Ac(a2-3)Gal(b1-3)GlcNAc(b1-2)Man(a1-3)[GlcNAc(b1-4)][Neu5Ac(a2-3)Gal(b1-3)GlcNAc(b1-2)Man(a1-6)]Man(b1-4)GlcNAc(b1-4)GlcNAc
# Procedure, shortened: as §1
# [21] = molecular target: Neu5Ac(a2-3)Gal(b1-3)GlcNAc(b1-2)Man(a1-3)[Neu5Ac(a2-3)Gal(b1-3)GlcNAc(b1-2)Man(a1-6)]Man(b1-4)GlcNAc(b1-4)GlcNAc
# Procedure, shortened: as §1
# [22] = molecular target: Neu5Ac(a2-3)Gal(b1-3)GlcNAc(b1-2)[Neu5Ac(a2-3)Gal(b1-3)GlcNAc(b1-4)]Man(a1-6)[Neu5Ac(a2-3)Gal(b1-3)GlcNAc(b1-2)Man(a1-3)]Man(b1-4)GlcNAc(b1-4)GlcNAc
# Procedure, shortened: as §1
# [23] = molecular target: Neu5Ac(a2-3)Gal(b1-3)GlcNAc(b1-3)Gal(b1-3)GlcNAc
# Procedure, shortened: as §1
# [24] = molecular target: Neu5Ac(a2-3)Gal(b1-3)GlcNAc(b1-3)Gal(b1-4)GlcNAc
# Procedure, shortened: as §1
# [25] = molecular target: Neu5Ac(a2-3)Gal(b1-3)GlcNAc(b1-3)GalNAc
# Procedure, shortened: as §1
# [26] = molecular target: Neu5Ac(a2-3)Gal(b1-3)GlcNAc(b1-6)GalNAc
# Procedure, shortened: as §1
# [27] = molecular target: Neu5Ac(a2-3)Gal(b1-3)GlcNAc6S
# Procedure, shortened: as §1
# [28] = molecular target: Neu5Ac(a2-3)Gal(b1-3)[Fuc(a1-4)]GlcNAc
# Procedure, shortened: as §1
# [29] = molecular target: Neu5Ac(a2-3)Gal(b1-3)[Fuc(a1-4)]GlcNAc(b1-3)Gal(b1-3)[Fuc(a1-4)]GlcNAc
# Procedure, shortened: as §1
# [30] = molecular target: Neu5Ac(a2-3)Gal(b1-3)[Fuc(a1-4)]GlcNAc(b1-3)Gal(b1-4)[Fuc(a1-3)]GlcNAc
# Procedure, shortened: as §1
# [31] = molecular target: Neu5Ac(a2-3)Gal(b1-3)[GlcNAc(b1-6)]GalNAc
# Procedure, shortened: as §1
# [32] = molecular target: Neu5Ac(a2-3)Gal(b1-3)[Neu5Ac(a2-3)Gal(b1-4)]GlcNAc
# Procedure, shortened: as §1
# [33] = molecular target: Neu5Ac(a2-3)Gal(b1-3)[Neu5Ac(a2-6)]GalNAc
# Procedure, shortened: as §1
# [34] = molecular target: Neu5Ac(a2-3)Gal(b1-3)[Neu5Ac(a2-6)]GlcNAc(b1-3)[Fuc(a1-3)[Gal(b1-4)]GlcNAc(b1-6)]Gal(b1-4)Glc
# Procedure, shortened: as §1
# [35] = molecular target: Neu5Ac(a2-3)Gal(b1-3)]Neu5Ac(a2-3)Gal(b1-4)]GlcNAc
# Procedure, shortened: as §1
# Neu5Ac(a2-3)Gal(b1-4)Glc = molecular target: Neu5Ac(a2-3)Gal(b1-4)Glc
# Procedure, shortened: as §1
# [36] = molecular target: Neu5Ac(a2-3)Gal(b1-4)GlcNAc
# Procedure, shortened: as §1
# [37] = molecular target: Neu5Ac(a2-3)Gal(b1-4)GlcNAc(b1-2)Man
# Procedure, shortened: as §1
# [38] = molecular target: Neu5Ac(a2-3)Gal(b1-4)GlcNAc(b1-2)Man(a1-3)[GlcNAc(b1-2)Man(b1-4)GlcNAc(b1-2)Man(a1-6)]Man(b1-4)GlcNAc(b1-4)GlcNAc
# Procedure, shortened: as §1
# [39] = molecular target: Neu5Ac(a2-3)Gal(b1-4)GlcNAc(b1-2)Man(a1-3)[GlcNAc(b1-4)][Neu5Ac(a2-3)Gal(b1-4)GlcNAc(b1-2)Man(a1-6)]Man(b1-4)GlcNAc(b1-4)GlcNAc
# Procedure, shortened: as §1
binder,measurement,setting,value
B1,glycan array binding signal (z-score),[1],-0.34
same,glycan array binding signal (z-score),[2],-0.179
same,glycan array binding signal (z-score),[3],-0.386
same,glycan array binding signal (z-score),[4],-0.235
same,glycan array binding signal (z-score),[5],-0.335
same,glycan array binding signal (z-score),[6],-0.185
same,glycan array binding signal (z-score),Man(a1-3)[Man(a1-6)]Man,-0.319
same,glycan array binding signal (z-score),[7],-0.158
same,glycan array binding signal (z-score),[8],-0.088
same,glycan array binding signal (z-score),[9],-0.156
same,glycan array binding signal (z-score),[10],-0.303
same,glycan array binding signal (z-score),[11],0.04
same,glycan array binding signal (z-score),Man(a1-6)Man,-0.167
same,glycan array binding signal (z-score),Man(b1-4)GlcNAc,-0.302
same,glycan array binding signal (z-score),MurNAc(b1-4)GlcNAc,-0.278
same,glycan array binding signal (z-score),Neu5Ac(a2-3)Gal,-0.336
same,glycan array binding signal (z-score),[12],-0.257
same,glycan array binding signal (z-score),[13],-0.132
same,glycan array binding signal (z-score),[14],-0.289
same,glycan array binding signal (z-score),[15],-0.227
same,glycan array binding signal (z-score),[16],0.004
same,glycan array binding signal (z-score),[17],-0.315
same,glycan array binding signal (z-score),[18],0.294
same,glycan array binding signal (z-score),[19],-0.261
same,glycan array binding signal (z-score),[20],0.011
same,glycan array binding signal (z-score),[21],-0.231
same,glycan array binding signal (z-score),[22],-0.212
same,glycan array binding signal (z-score),[23],0.626
same,glycan array binding signal (z-score),[24],0.604
same,glycan array binding signal (z-score),[25],-0.297
same,glycan array binding signal (z-score),[26],-0.117
same,glycan array binding signal (z-score),[27],-0.003
same,glycan array binding signal (z-score),[28],-0.332
same,glycan array binding signal (z-score),[29],0.125
same,glycan array binding signal (z-score),[30],-0.197
same,glycan array binding signal (z-score),[31],-0.282
same,glycan array binding signal (z-score),[32],-0.264
same,glycan array binding signal (z-score),[33],0.007
same,glycan array binding signal (z-score),[34],-0.209
same,glycan array binding signal (z-score),[35],-0.286
same,glycan array binding signal (z-score),Neu5Ac(a2-3)Gal(b1-4)Glc,-0.201
same,glycan array binding signal (z-score),[36],-0.323
same,glycan array binding signal (z-score),[37],0.46
same,glycan array binding signal (z-score),[38],-0.355
same,glycan array binding signal (z-score),[39],-0.276
